This passage reports binding signal results from paper PMC12820563, “FoxP3 forms a head-to-head dimer in vivo and stabilizes its multimerization on adjacent microsatellites”.

The list shows a part of the results.

The experiment concerns the target T1, MBP-FoxP1dN (Mus musculus, UniProt P58462 326-579).
T1 sequence: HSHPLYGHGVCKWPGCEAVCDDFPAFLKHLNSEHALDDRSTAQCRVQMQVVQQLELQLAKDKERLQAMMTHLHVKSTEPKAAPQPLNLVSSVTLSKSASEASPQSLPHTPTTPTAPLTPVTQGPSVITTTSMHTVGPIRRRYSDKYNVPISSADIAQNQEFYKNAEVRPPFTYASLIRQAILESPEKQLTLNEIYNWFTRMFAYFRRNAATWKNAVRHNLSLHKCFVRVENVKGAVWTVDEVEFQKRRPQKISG
In words: PD-seq (MBP pull-down with sequencing); 20 mM Tris-HCl pH 7.5, 100 mM NaCl, 1.5 mM MgCl2, 0.4 uM protein, 0.1 uM dsDNA library, 30 min, room temperature, amylose pull-down; high values mean tight binding. Conditions: protein: recombinant; tags: His6-MBP; chain copies: 2; dsDNA, one strand shown. The essentials: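 Binding is given as reads-per-million enrichment, pull-down over input, with replicates pooled. The bait was an N-terminus-lacking mouse FoxP3 or FoxP1 fragment with a His6-MBP tag, expressed in E. coli and used at 0.4 µM with 0.1 µM Klenow-filled degenerate double-stranded DNA library for 30 min at room temperature in Tris pH 7.5 buffer with NaCl and MgCl2. Amylose resin pull-down with three washes was followed by proteinase K release, PCR barcoding and Illumina sequencing.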
For the sequence “GATGATTGTTCTCCCAGCTGATGAATTGTCGCCATCGAGTAAACAAATTTTCCTAATCTTTCTGTTCAAGCGCCATCTAC”, the binding signal is 1.03 RPM ratio (pull-down/input).
Under “GATGATTGTTCTCCCAGCTGATGAATTCTTGCCTTCGAGTAAACAAATTTTCCTAATCTTTCTGTTCAAGCGCCATCTAC” stands 0.923 RPM ratio (pull-down/input).
Next, “GATGATTGTTCTCCCAGCTGATGAATTAGCTGCTTCGAGTAAACAAATTTTCCTAATCTTTCTGTTCAAGCGCCATCTAC”: 0.894 RPM ratio (pull-down/input); “GATGATTGTTCTCCCAGCTGATGAATTAGATTGGTCGAGTAAACAAATTTTCCTAATCTTTCTGTTCAAGCGCCATCTAC”: 0.947 RPM ratio (pull-down/input).
As to “GATGATTGTTCTCCCAGCTGATGAATTCAACTGTTCGAGTAAACAAATTTTCCTAATCTTTCTGTTCAAGCGCCATCTAC”, the binding signal was 0.939 RPM ratio (pull-down/input).
Under “GATGATTGTTCTCCCAGCTGATGAATTCCACACCTCGAGTAAACAAATTTTCCTAATCTTTCTGTTCAAGCGCCATCTAC” stands 0.826 RPM ratio (pull-down/input).
Next, “GATGATTGTTCTCCCAGCTGATGAATTGCTTTATTCGAGTAAACAAATTTTCCTAATCTTTCTGTTCAAGCGCCATCTAC”: 1.19 RPM ratio (pull-down/input); “GATGATTGTTCTCCCAGCTGATGAATTGTTTCATTCGAGTAAACAAATTTTCCTAATCTTTCTGTTCAAGCGCCATCTAC”: 1.23 RPM ratio (pull-down/input).
Next, “GATGATTGTTCTCCCAGCTGATGAATTATGGACATCGAGTAAACAAATTTTCCTAATCTTTCTGTTCAAGCGCCATCTAC”: 1.04 RPM ratio (pull-down/input); “GATGATTGTTCTCCCAGCTGATGAATTATTTCCTTCGAGTAAACAAATTTTCCTAATCTTTCTGTTCAAGCGCCATCTAC”: 1.04 RPM ratio (pull-down/input); “GATGATTGTTCTCCCAGCTGATGAATTTTGAGTCTCGAGTAAACAAATTTTCCTAATCTTTCTGTTCAAGCGCCATCTAC”: 0.825 RPM ratio (pull-down/input).
For “GATGATTGTTCTCCCAGCTGATGAATTAGCTCTTTCGAGTAAACAAATTTTCCTAATCTTTCTGTTCAAGCGCCATCTAC”, the binding signal is 0.891 RPM ratio (pull-down/input).
Under “GATGATTGTTCTCCCAGCTGATGAATTGCAGTCCTCGAGTAAACAAATTTTCCTAATCTTTCTGTTCAAGCGCCATCTAC” stands 0.935 RPM ratio (pull-down/input).
Under “GATGATTGTTCTCCCAGCTGATGAATTGCATATTTCGAGTAAACAAATTTTCCTAATCTTTCTGTTCAAGCGCCATCTAC” stands 1.4 RPM ratio (pull-down/input); under “GATGATTGTTCTCCCAGCTGATGAATTTGGCATCTCGAGTAAACAAATTTTCCTAATCTTTCTGTTCAAGCGCCATCTAC”, 1.05 RPM ratio (pull-down/input); under “GATGATTGTTCTCCCAGCTGATGAATTCCCTGAGTCGAGTAAACAAATTTTCCTAATCTTTCTGTTCAAGCGCCATCTAC”, 0.779 RPM ratio (pull-down/input).
Regarding “GATGATTGTTCTCCCAGCTGATGAATTCTGTGCATCGAGTAAACAAATTTTCCTAATCTTTCTGTTCAAGCGCCATCTAC”, the binding signal is 1.2 RPM ratio (pull-down/input).
As to “GATGATTGTTCTCCCAGCTGATGAATTTAGACAATCGAGTAAACAAATTTTCCTAATCTTTCTGTTCAAGCGCCATCTAC”, the binding signal is 1.53 RPM ratio (pull-down/input).
